Experimental data as given in article PMC12136788.
The list shows a part of the results.

B1: chr6:56056589:56057844:-|three_prime_utr|ENSG00000124749|control|control|control (ssRNA)
RNA: GGGAGUUCUACAGUCCGACGAUCAAACCUGGAAUCCAAGGGCAACCAGGCCCCCCAGGCAUCUGCGACCCAUCACUAUGUUUUAGUGUAAUUGCCAGAAGAGAUCCGUUCAGAAAAGGACCAAACUAUUAGUGUCUGAUGCCUCAACAGAGGAUUGAGCAUCA
B2: chrX:52926401:52927765:-|three_prime_utr|ENSG00000268350|control|control|control (ssRNA)
RNA: GGGAGUUCUACAGUCCGACGAUCUUGUUUGUAAUCAUAAAUUUGUGAGCCUAAGCUACUGCAAAGGAAACUGGCCAGGUUAUUAGCCCAAAUGAAGGCAGUGGGUAACUUGGGUUUAGCCCCAACACCAGCCGCACCUAGGAACAACAGAGGAUUGAGCAUCA
B3: chr5:10264816:10264917:+|3pUTR|ENSG00000150753|msi1_unk|FALSE|overlapping (ssRNA)
RNA: GGGAGUUCUACAGUCCGACGAUCAAUGGAUGUCUCGUGAUGCAUCUACAGUUAUUUAUUGUUACAUCCUUUUCCAGACACUGUAGAUGCUAUAAUAAAAAUAGCUGUUUGGUAACCAUAGUUUCACUUGUUCAAAGCUGUGUACAACAGAGGAUUGAGCAUCA
B4: chr16:55506527:55506628:+|3pUTR|ENSG00000087245|msi1|FALSE|unique (ssRNA)
RNA: GGGAGUUCUACAGUCCGACGAUCUAUCAGUUUUAAUGCUACUACUAACAAUGAACAGUAACAAUAAUAUCCCCCUCAAUUAAUAGAGUGCUUUCUAUGUGCAAGGCACUUUUCACGUGUCACCUAUUUUAACCUUUCCAACCACAACAGAGGAUUGAGCAUCA
B5: chr7:101206146:101206247:-|3pUTR|ENSG00000106397|msi1|FALSE|unique (ssRNA)
RNA: GGGAGUUCUACAGUCCGACGAUCCUUUGUCGACCCCUGACACUCAACCACUCUGCCAAACCUGCCCUGCCAUUGUGCCUUUUUAGGGGGCCUGGCCCCCGUCCUGGGAGUUGGGGGAUGGGUCUCUCUGUCUCCCCACUUCCUCAACAGAGGAUUGAGCAUCA
B6: chr14:21351797:21351898:-|3pUTR|ENSG00000092201|msi1|FALSE|unique (ssRNA)
RNA: GGGAGUUCUACAGUCCGACGAUCGAGGAAGGCUCAAAGGAGUCAACAUUUAUAUCUGGAAGGGACAAGUCAUGCCUUGGGCCUAGAAUACCCUGAUGAGAAAAGAGAAGAGGAAGGGAGGCCAUAUCUACAACACAGCCUCUCCAACAGAGGAUUGAGCAUCA
B7: chr17:57972098:57972209:-|3pUTR|ENSG00000136451|unk|FALSE|bound_elsewhere (ssRNA)
RNA: GGGAGUUCUACAGUCCGACGAUCCUAGAAUGUGGUUGUCAGAACCCUGAAAGUAUUAGUUCUAAAAAAAAAAAGAUAUAUACUAGAAGUAAUUGUUUUAUCAAUUCAUUGUAUAAUAAACAGGAGUGAGACUUCAUUGUAUGACAACAGAGGAUUGAGCAUCA
B8: chrX:101163201:101163302:+|3pUTR|ENSG00000102384|unk|FALSE|unique (ssRNA)
RNA: GGGAGUUCUACAGUCCGACGAUCUCAUCAUCAGGCUCUGCGUUCUACCAAAUUGUAUGUAAAAAGACACAUCUGUUUUGUGGUAGGAUUUUUUCACAUUUUUGGGUACUAUGAGCUGCAUUGAUGGAAGACAGCAGGCAAUAUCAACAGAGGAUUGAGCAUCA
B9: chr6:13639604:13639705:-|CDS|ENSG00000010017|unk|total|mutant (ssRNA)
RNA: GGGAGUUCUACAGUCCGACGAUCGACCGUGAAGUACGAUGUUUGGGAGGCCGAAGUCCAAAGUCUCAAGACAGUUAUCCUGUCCGUCCUCGACCUUUCCGCCGUCCAAGUAUGAGCCCCAGCCAUGGAAUGAAUAUCCACAAUCAACAGAGGAUUGAGCAUCA
B10: chr10:127452233:127452334:+|3pUTR|ENSG00000150760|msi1|total|mutant (ssRNA)
RNA: GGGAGUUCUACAGUCCGACGAUCGUAUAUAUGAUGGUUCUCCGAACUUGUUUUAAUUUUUGUGGUCCUUCCGUUUAUUAUAACCGGCGUCCACCAAUGAUUAUCCAUAUGUGUUCUUAAUUUUUAACUGCUGGAAGUGUUAAACAACAGAGGAUUGAGCAUCA
B11: chr2:61188134:61188237:-|CDS|ENSG00000115464|unk|FALSE|unique (ssRNA)
RNA: GGGAGUUCUACAGUCCGACGAUCAUCUCUCAGUUGUGGCCAUUCCAGAGGACUCUUUAGUCAUAUGCAGCAACAUGACAUUUUAGAUACCCUGUGUAGGACCAUUGAAUCUACAAUCCAUGUCGUCACAAGGAUAUCUGGCAACAACAGAGGAUUGAGCAUCA
B12: ENSG00000070961:be:win_1401|CDS|ENSG00000070961|bound_else_gene|NA|bound_elsewhere_windowed (ssRNA)
RNA: GGGAGUUCUACAGUCCGACGAUCAAAUGCUACAGCUAUUUGUUCAGAUAAAACAGGAACUUUGACAAUGAACAGAAUGACAGUCGUUCAAGCUUACAUAAAUGAAAAACAUUAUAAAAAGGUUCCUGAACCAGAAGCUAUUCCCAACAGAGGAUUGAGCAUCA
B13: chr1:183143318:183143419:+|3pUTR|ENSG00000135862|msi1|total|mutant (ssRNA)
RNA: GGGAGUUCUACAGUCCGACGAUCACAUCCUGUGCCAAAGGUAUUGGUCAUUCCGAAUGUCGGCCGCCAUCCAUCAGUGCUUUCCGUUAUUAUGAGUGCCGGACACUGAGCCAUCCGUGGGUCAGGAUGCAAUUAUUUAUAAAACAACAGAGGAUUGAGCAUCA
B14: chr2:169206329:169207250:-|CDS|ENSG00000081479|control|control|control (ssRNA)
RNA: GGGAGUUCUACAGUCCGACGAUCAACUGUCAUGUCUCUAGACUAUGACAGUGUAAGUGAUAGAAUCUACUUCACACAAAAUUUAGCCUCUGGAGUUGGACAGAUUUCCUAUGCCACCCUGUCUUCAGGGAUCCAUACUCCAACCAACAGAGGAUUGAGCAUCA
B15: chr7:6409910:6410025:-|CDS|ENSG00000164535|unk|total|mutant (ssRNA)
RNA: GGGAGUUCUACAGUCCGACGAUCCUCUGCUGCUCACUACCGCGCCAAGUGGUCACACGAAGCGGAAUUCAGCAAAAUACUCACCGGUCCGAAGAUGCUCACCGACCACAUGCCAGACAUCCUGAUGCGGGCCUUGGACAGCGUCAACAGAGGAUUGAGCAUCA
B16: ENSG00000141012:stop:overlap|stop_codon|ENSG00000141012|stop_codon|NA|stop_codon (ssRNA)
RNA: GGGAGUUCUACAGUCCGACGAUCAGUUAGGGAAGUGUCUGACACCUCCAGAAUCCAUUCCCAAGAAGUGCCUCUGGUCCCACUAGCACCUGCGCAGACUCAGGCCAGGCCUAGAAUCUCCGGUUGGCCCUGCAAGUGCCUGGACAACAGAGGAUUGAGCAUCA
B17: ENSG00000099250:stop:overlap|stop_codon|ENSG00000099250|stop_codon|NA|stop_codon (ssRNA)
RNA: GGGAGUUCUACAGUCCGACGAUCCAAUUCACGGAGAAAUGUGGUCAUCUGGAAAAGGAGUCUGCUCCCUGGAUGCGAAUCUGUAGCCUGGAUUCUGGAAGGCGAUGCUGAUUUAGGAGGUGGAGUGAAUGGAGAAUUGAAAAGCAACAGAGGAUUGAGCAUCA
B18: chr6:73594753:73594854:-|3pUTR|ENSG00000119899|unk|FALSE|unique (ssRNA)
RNA: GGGAGUUCUACAGUCCGACGAUCGGUUCACAUACCUGCCUGCUAGUCGGGCAACAUGAAGUAGGACAGUUCUGUUGAUUUUUUAGGGCCAUACUAAAGGGAAUGAGCUGAAACAGACCUCCUGAUACCUUUGCUUAAUUAAACCAACAGAGGAUUGAGCAUCA
B19: chr17:81921741:81921842:-|3pUTR|ENSG00000197063|msi1|total|mutant (ssRNA)
RNA: GGGAGUUCUACAGUCCGACGAUCAAUUAUAUGUUUAAAAGUUAAAGAAAAAAGAGCUGCAGAGUAUUUAUAAAACUGUCUUUCCGAAAAAAAACAAGCAAGAAGACCAUUUGACCAUAUGAAUGGAAAAGGGAAGAAAGUAUACAACAGAGGAUUGAGCAUCA
B20: chr2:47509289:47520906:-|three_prime_utr|ENSG00000184261|control|control|control (ssRNA)
RNA: GGGAGUUCUACAGUCCGACGAUCCGGCAACCCCAAAGCAUAUGGUGCAACUUUUCGUGGCUCUGAAUUACCUCCUCAGCAUUUAGAAUCCUGGCCCAGCCUAGCAGCUUCCUUCUGGUCGUCAGAAGUGAUAUAGUCACAGUUCAACAGAGGAUUGAGCAUCA
B21: chr9:93565116:93565217:+|3pUTR|ENSG00000048828|unk|FALSE|unique (ssRNA)
RNA: GGGAGUUCUACAGUCCGACGAUCAUAUACAAUACAUCAUACAUACUUUACAAGCAAGUUAAAUGGAGAUAAAGUUGAAAUCAUAGAAGAUGCAAAUGACCUUUCAAAAUCAACACAAUGUGUUCUGAAACUUUCGUGACUAAUCAACAGAGGAUUGAGCAUCA
B22: chr7:77627539:77627665:+|CDS|ENSG00000127947|unk|total|mutant (ssRNA)
RNA: GGGAGUUCUACAGUCCGACGAUCAAUAUUUCAACAGCAAGUGCCACAGUUUCUGCUGCCACCCGUACUGAAAGCAUUUCUACCCGGAAAGUAUUGCCAAUGUCCAUUGCCCGACAUAAUACCGCAGGAACAACACAUUCAGGUCAACAGAGGAUUGAGCAUCA

Target: MSI1 full-length (mouse, UniProt Q61474 1-362)
Sequence of UniProt Q61474 (Q61474 whole entry): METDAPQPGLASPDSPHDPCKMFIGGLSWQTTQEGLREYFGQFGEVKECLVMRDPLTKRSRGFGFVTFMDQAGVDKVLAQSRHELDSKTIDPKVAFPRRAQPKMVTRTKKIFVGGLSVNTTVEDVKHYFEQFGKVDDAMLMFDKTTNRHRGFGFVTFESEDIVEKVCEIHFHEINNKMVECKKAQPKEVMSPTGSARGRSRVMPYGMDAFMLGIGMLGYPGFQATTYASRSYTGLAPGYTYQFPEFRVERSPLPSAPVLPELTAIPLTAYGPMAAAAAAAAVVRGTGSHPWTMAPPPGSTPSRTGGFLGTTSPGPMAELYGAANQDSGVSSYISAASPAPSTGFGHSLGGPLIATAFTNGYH
Test: nsRBNS (natural sequence RNA bind-n-seq); RBNS binding buffer (assumed for nsRBNS): 25 mM Tris pH 7.5, 150 mM KCl, 3 mM MgCl2, 0.01% Triton X-100, 500 ug/ml BSA, 20 U/ml SUPERase-In, 4 C; UNK is unkempt and MSI1 is Musashi-1; names of the RNAs are library labels; protein concentration not given here; high values mean tight binding

**Q.** How did the binding signal turn out when B1 was run?
**A.** 1.07 enrichment R

**Q.** Which binding signal does the source give for B2 here?
**A.** 0.414 enrichment R

**Q.** Which binding signal does the source give for B3 here?
**A.** 5.3 enrichment R

**Q.** For B4, which binding signal is on record?
**A.** 3.98 enrichment R

**Q.** Which binding signal does the source give for B5 here?
**A.** 0.524 enrichment R

**Q.** B6 was tested. Which binding signal did it give?
**A.** 0.748 enrichment R

**Q.** Which binding signal does the source give for B7 here?
**A.** 29.3 enrichment R

**Q.** With B8 as the binder, how does the binding signal read?
**A.** 0.267 enrichment R

**Q.** B9 was tested. Which binding signal did it give?
**A.** 0.302 enrichment R

**Q.** With B10 as the binder, how does the binding signal read?
**A.** 0.679 enrichment R

**Q.** B11 was tested. Which binding signal did it give?
**A.** 0.347 enrichment R

**Q.** B12 was tested. Which binding signal did it give?
**A.** 0.413 enrichment R

**Q.** Which binding signal does the source give for B13 here?
**A.** 0.319 enrichment R

**Q.** For B14, which binding signal is on record?
**A.** 0.679 enrichment R

**Q.** B15 was tested. Which binding signal did it give?
**A.** 0.446 enrichment R

**Q.** With B16 as the binder, how does the binding signal read?
**A.** 0.527 enrichment R

**Q.** B17 was tested. Which binding signal did it give?
**A.** 0.543 enrichment R

**Q.** Which binding signal does the source give for B18 here?
**A.** 0.746 enrichment R

**Q.** B19 was tested. Which binding signal did it give?
**A.** 3.35 enrichment R

**Q.** With B20 as the binder, how does the binding signal read?
**A.** 1.56 enrichment R

**Q.** B21 was tested. Which binding signal did it give?
**A.** 0.699 enrichment R

**Q.** B22 was tested. Which binding signal did it give?
**A.** 0.394 enrichment R
